{"source": "PubChem BioAssay (NCATS)", "key": {"[1]": {"assay": "Primary qHTS for inhibitors of nuclear receptor binding SET domain protein 2 (NSD2) in an isogenic RCH-ACV NSD2 p.E1099K mutant (9B) (AID 1645876); further: nearly all actives have a fitted effect of over 70% in size; further: potency means the concentration at half of the fitted maximal effect", "settings": "RCH-ACV NSD2 E1099K (9B) viability, CellTiter-Glo, 72 h; series mostly up to 44.9 µM"}, "[2]": {"assay": "Primary qHTS for inhibitors of nuclear receptor binding SET domain protein 2 (NSD2) in an RCH-ACV wild type WT cells (2C) (AID 1645877); further: nearly all actives have a fitted effect of over 70% in size; further: potency means the concentration at half of the fitted maximal effect; on activity change, negative = cell killing: on the % scale 0 is the no-effect control and ±100 the full control effect", "settings": "RCH-ACV NSD2 WT (2C) viability, CellTiter-Glo, 72 h; activity change, negative = cell killing: at 44.9 µM (top of the series); series mostly up to 44.9 µM"}, "[3]": {"assay": "Primary fluorescence-based thiol-reactive (MSTI) qHTS assay for identification of artifact compounds. (AID 1845221); further: nearly all actives have a fitted effect of over 65% in size; further: potency means the concentration at half of the fitted maximal effect", "settings": "MSTI thiol-reactivity probe, 1 h; series mostly up to 53.8 µM", "summary_of_the_method": "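Probe: MSTI 4 uM, PBS pH 7.4, 2% DMSO. Incubation 1 h, RT, light-protected. Readout fluorescence 525/598 nm.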"}, "[4]": {"target": "Glutathione peroxidase 1 (Homo sapiens) (UniProt P07203)", "sequence (P07203 whole entry, looked up)": "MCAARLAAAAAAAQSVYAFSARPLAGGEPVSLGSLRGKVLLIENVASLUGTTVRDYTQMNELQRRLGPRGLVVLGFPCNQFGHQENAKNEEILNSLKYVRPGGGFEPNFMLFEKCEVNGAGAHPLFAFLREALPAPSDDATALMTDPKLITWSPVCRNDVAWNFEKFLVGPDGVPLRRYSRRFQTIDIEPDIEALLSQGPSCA", "assay": "Primary qHTS Assay for Inhibitors of Recombinant Selenoprotein Glutathione Peroxidase 1 (GPX1) (AID 1845191); further: nearly all actives have a fitted effect of over 65% in size; further: potency means the concentration at half of the fitted maximal effect; on activity, negative = inhibition: on the % scale 0 is the no-effect control and ±100 the full control effect", "settings": "recombinant GPX1, GR-coupled NADPH fluorescence, 15 min; activity, negative = inhibition: at 48.8 µM (top of the series); series mostly up to 48.8 µM", "summary_of_the_method": "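NADPH consumption tracked by fluorescence at 340/450 nm between t=0 and t=15 min, room temperature. Final mix: 10 nM GPX1, 100 nM glutathione reductase, 1 mM GSH, 0.5 mM NADPH, 0.5 mM cumene hydroperoxide, 0.01% BSA; 30 min compound–enzyme preincubation.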"}, "[5]": {"assay": "NCATS anti-infectives library activity on HEK293 viability as a counter-qHTS vs the C. elegans viability qHTS (AID 1745854); further: potency means the concentration at half of the fitted maximal effect", "settings": "HEK293 viability counter-screen; series mostly up to 41.8 µM", "summary_of_the_method": "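CellTiter-Glo luminescence, read on a CCD imager, scored viability of HEK293 cells after 24 hr compound exposure at 37C. Library tested in several concentrations, 1:5 steps, up to 41.7 uM; digitonin served as control.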"}, "[6]": {"target": "Phospholipid hydroperoxide glutathione peroxidase GPX4 (Homo sapiens) (UniProt P36969)", "sequence (P36969 whole entry, looked up)": "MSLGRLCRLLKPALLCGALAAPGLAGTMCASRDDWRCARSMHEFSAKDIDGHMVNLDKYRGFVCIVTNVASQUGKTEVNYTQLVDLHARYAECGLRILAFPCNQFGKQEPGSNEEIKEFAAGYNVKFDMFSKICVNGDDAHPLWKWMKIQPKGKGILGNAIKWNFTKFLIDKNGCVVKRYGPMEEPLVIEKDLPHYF", "assay": "Primary qHTS Assay for Inhibitors of Recombinant Selenoprotein Glutathione Peroxidase 4 (GPX4) (AID 1845192); further: potency means the concentration at half of the fitted maximal effect; nearly all actives have a fitted effect of over 65% in size", "settings": "recombinant GPX4, GR-coupled NADPH fluorescence, 15 min; series mostly up to 50 µM", "summary_of_the_method": "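NADPH consumption followed by fluorescence at 340/450 nm, t=0 and after 15 min at room temperature. Reaction started with cumene hydroperoxide (0.5 mM final) after 30 min compound–GPX4 preincubation; final 200 nM GPX4, 100 nM GR, 1 mM GSH, 0.5 mM NADPH.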"}, "[7]": {"tested_on": "Nanoluciferase (engineered Oplophorus gracilirostris luciferase)", "assay": "Primary Nanoluciferase (NLuc) qHTS assay for identification of artifact compounds. (AID 1845222); further: potency means the concentration at half of the fitted maximal effect", "settings": "NLuc-conditioned medium, Nano-Glo luminescence, 5 min; series mostly up to 54.1 µM", "summary_of_the_method": "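Compounds are pinned into diluted (1:55) conditioned medium of NLuc-expressing S16 cells and held 15 min at room temperature protected from light. Nano-Glo substrate follows, and luminescence is read 5 min later.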"}, "[8]": {"assay": "NCATS anti-infectives library activity on the primary C. elegans qHTS viability assay (AID 1745855; calls by dose curve; further: potency means the concentration at half of the fitted maximal effect)", "settings": "C. elegans worm area imaging, day 7; series mostly up to 41.8 µM", "summary_of_the_method": "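Titration-based screen in worms: eggs hatched overnight in M9, L1 larvae fed TOP10 capsules in S medium with compound, incubated 21 °C for 7 days; fluorescent objects gated by size and intensity at days 0, 3 and 7.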"}, "[9]": {"target": "Rap guanine nucleotide exchange factor 3 (Homo sapiens) (UniProt O95398)", "sequence (O95398 whole entry, looked up)": "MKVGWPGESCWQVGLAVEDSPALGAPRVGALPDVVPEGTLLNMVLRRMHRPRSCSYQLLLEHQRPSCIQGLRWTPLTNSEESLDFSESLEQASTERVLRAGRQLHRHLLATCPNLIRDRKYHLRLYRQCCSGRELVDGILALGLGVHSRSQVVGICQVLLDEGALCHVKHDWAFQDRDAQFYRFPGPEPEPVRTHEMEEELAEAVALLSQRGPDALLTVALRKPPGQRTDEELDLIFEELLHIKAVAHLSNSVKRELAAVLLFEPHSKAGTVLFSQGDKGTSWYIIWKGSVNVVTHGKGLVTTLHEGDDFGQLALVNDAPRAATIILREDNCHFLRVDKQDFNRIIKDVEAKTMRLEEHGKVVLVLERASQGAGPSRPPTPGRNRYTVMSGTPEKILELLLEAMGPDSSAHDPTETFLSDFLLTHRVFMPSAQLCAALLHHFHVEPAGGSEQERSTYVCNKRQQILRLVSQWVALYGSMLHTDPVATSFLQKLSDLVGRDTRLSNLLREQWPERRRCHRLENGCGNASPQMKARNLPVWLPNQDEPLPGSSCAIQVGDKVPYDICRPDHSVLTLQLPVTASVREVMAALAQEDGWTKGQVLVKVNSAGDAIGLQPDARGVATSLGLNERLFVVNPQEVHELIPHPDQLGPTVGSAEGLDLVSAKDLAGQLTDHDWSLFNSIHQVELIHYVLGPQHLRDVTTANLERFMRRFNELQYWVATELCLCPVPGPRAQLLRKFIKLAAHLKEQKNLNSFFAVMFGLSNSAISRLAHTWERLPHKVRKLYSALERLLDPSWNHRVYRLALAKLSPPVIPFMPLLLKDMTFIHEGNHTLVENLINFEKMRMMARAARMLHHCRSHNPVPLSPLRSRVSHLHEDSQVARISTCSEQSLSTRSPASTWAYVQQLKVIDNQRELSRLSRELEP", "assay": "Confirmatory qHTS for antagonist of cAMP-regulated guanine nucleotide exchange factor 3 (EPAC1) (AID 1645880);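 further: plate controls were DMSO only for no effect and full effect of the ATA control for full effect; nearly all actives have a fitted effect of over 55% in size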", "settings": "EPAC1 Rap1B-BODIPY-GDP exchange, fluorescence; series mostly up to 115 µM", "summary_of_the_method": "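Released BODIPY-GDP fluoresces less than Rap1-bound BODIPY-GDP; the signal is followed at 480/540 nm at 5-min intervals over 30 min, after 5 min at room temperature. Reactions contain 100 nM EPAC1, 250 nM RAP1B-BODIPY-GDP and 50 uM GDP; results are normalized to ATA and DMSO.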"}, "[10]": {"target": "Luciferin 4-monooxygenase (Photinus pyralis) (UniProt P08659)", "assay": "Primary firefly luciferase (FLuc) qHTS assay for identification of artifact compounds. (AID 1845220); further: nearly all actives have a fitted effect of over 60% in size", "settings": "purified firefly luciferase, luminescence, 5 min; series mostly up to 54.1 µM", "summary_of_the_method": "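Cell-free, 1536-well qHTS. Buffer pH 7.6 with 0.01% Tween-20 and 0.05% BSA; 10 uM D-luciferin, 10 uM ATP; 10 nM P. pyralis luciferase; luminescence after 5 min.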"}, "[11]": {"target": "Rap guanine nucleotide exchange factor 3 (Homo sapiens) (UniProt O95398)", "assay": "Confirmatory qHTS for agonist of cAMP-regulated guanine nucleotide exchange factor 3 (EPAC1) (AID 1645881);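 further: EPAC1 catalysed release of BODIPY-GDP from Rap1B seen as fluorescence loss; nearly all actives have a fitted effect of over 75% in size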", "settings": "EPAC1 Rap1B BODIPY-GDP exchange fluorescence, 100% = cAMP control response; at 154 µM (top of the series)"}, "[12]": {"target": "Rap guanine nucleotide exchange factor 4 (Homo sapiens) (UniProt Q8WZA2)", "sequence (Q8WZA2 whole entry, looked up)": "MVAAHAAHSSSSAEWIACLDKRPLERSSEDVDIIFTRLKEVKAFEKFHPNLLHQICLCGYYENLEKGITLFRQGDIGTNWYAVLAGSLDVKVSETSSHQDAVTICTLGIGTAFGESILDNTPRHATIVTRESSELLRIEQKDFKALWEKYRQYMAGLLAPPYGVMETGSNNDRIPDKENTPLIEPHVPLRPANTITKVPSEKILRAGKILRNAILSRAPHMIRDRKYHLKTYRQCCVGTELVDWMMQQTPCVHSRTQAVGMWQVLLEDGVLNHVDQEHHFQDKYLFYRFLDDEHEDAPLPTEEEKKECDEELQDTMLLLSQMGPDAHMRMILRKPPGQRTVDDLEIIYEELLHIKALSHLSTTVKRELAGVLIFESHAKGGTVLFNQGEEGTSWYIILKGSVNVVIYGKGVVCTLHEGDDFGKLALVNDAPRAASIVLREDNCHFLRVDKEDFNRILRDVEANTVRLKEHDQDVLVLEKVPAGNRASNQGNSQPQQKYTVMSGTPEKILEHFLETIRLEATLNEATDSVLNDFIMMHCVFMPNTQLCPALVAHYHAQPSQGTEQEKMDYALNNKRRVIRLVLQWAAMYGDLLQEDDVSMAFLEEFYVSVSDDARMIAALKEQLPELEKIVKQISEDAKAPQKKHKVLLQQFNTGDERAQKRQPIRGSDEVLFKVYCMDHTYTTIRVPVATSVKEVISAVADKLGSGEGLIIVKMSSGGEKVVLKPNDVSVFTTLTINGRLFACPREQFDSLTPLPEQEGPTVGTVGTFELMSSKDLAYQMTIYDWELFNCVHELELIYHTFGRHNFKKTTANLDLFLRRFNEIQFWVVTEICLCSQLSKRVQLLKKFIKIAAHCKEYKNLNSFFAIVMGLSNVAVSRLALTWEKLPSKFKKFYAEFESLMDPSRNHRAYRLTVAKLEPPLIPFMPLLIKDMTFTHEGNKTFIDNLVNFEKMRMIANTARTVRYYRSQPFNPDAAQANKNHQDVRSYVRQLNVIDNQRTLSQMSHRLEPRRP", "assay": "Confirmatory qHTS for antagonist of cAMP-regulated guanine nucleotide exchange factor 4 (EPAC2) (AID 1645885); further: potency means the concentration at half of the fitted maximal effect; nearly all actives have a fitted effect of over 25% in size", "settings": "EPAC2 Rap1B-BODIPY-GDP exchange fluorescence, biochemical"}}, "note": "Where “and” joins values, the source holds several entries; their conditions need not be identical. Equal values may be shown once. This list was built around the results that the source calls inconclusive (neither active nor inactive); the mix of calls is not that of the screen. For part of these data: Potencies beside an inconclusive call are fits to weak or partial responses and may not hold up. Some structures have more than one record in an assay (separate samples or runs), and their calls can disagree. Calls of active or inactive are those of the source. Unless noted, the call rests on the fitted dose curve; in most records, active means well fitted curve in the direction sought with a large enough effect; inconclusive means small, poorly fitted or top-dose-only effect, or another doubt; inactive means no such curve, though single readings can be large; an effect the other way counts as inactive or inconclusive. Tags describe the fitted curve by direction and shape."}
{"smiles": "CC(C)c1nc(CN(C)C(=O)N[C@H](C(=O)N[C@@H](Cc2ccccc2)C[C@H](O)[C@H](Cc2ccccc2)NC(=O)OCc2cncs2)C(C)C)cs1", "values": [{"measurement": "Potency", "setting": "[1]", "result": "inconclusive: 21.1 µM [inhibitor, single point] and inconclusive: 29 µM [inhibitor, single point]"}, {"measurement": "Potency", "setting": "[2]", "result": "inconclusive: 21.1 µM [inhibitor, single point] and inconclusive: 11.5 µM [inhibitor, partial curve]"}, {"measurement": "Potency", "setting": "[3]", "result": "inactive"}]}
{"smiles": "COc1ccc2c(c1)c(CC(=O)O)c(C)n2C(=O)c1ccc(Cl)cc1", "values": [{"measurement": "Potency", "setting": "[1]", "result": "inconclusive: 4.22 µM [inhibitor, partial curve, poor fit]"}, {"measurement": "Potency", "setting": "[2]", "result": "inconclusive: 5.96 µM [inhibitor, single point]"}, {"measurement": "activity, negative = inhibition", "setting": "[4]", "result": "inconclusive: -32.9% [inhibitor]"}]}
{"smiles": "O=C(O)c1ccc2c(c1)nc(Nc1cccc(Cl)c1)c1ccncc12", "values": [{"measurement": "Potency", "setting": "[1]", "result": "active: 4.59 µM and active: 2.95 µM"}, {"measurement": "Potency", "setting": "[2]", "result": "active: 3.65 µM and inconclusive: 1.66 µM [inhibitor, full curve]"}, {"measurement": "Potency", "setting": "[5]", "result": "inconclusive: 14.1 µM [cytotoxic, partial curve]"}, {"measurement": "Potency", "setting": "[6]", "result": "inconclusive: 20.2 µM [inhibitor, single point]"}, {"measurement": "Potency", "setting": "[3]", "result": "inconclusive: 21.2 µM [inhibitor, single point]"}, {"measurement": "Potency", "setting": "[7]", "result": "inconclusive: 19 µM [inhibitor, partial curve]"}]}
{"smiles": "NC(N)=NC(=O)c1nc(Cl)c(N)nc1N", "values": [{"measurement": "Potency", "setting": "[1]", "result": "inconclusive: 34 µM [inhibitor, partial curve] and inconclusive: 13.3 µM [inhibitor, partial curve]"}, {"measurement": "Potency", "setting": "[2]", "result": "inconclusive: 27 µM [inhibitor, partial curve] and inconclusive: 13.3 µM [inhibitor, partial curve]"}, {"measurement": "Potency", "setting": "[4]", "result": "inconclusive: 25.1 µM [inhibitor, partial curve] and inconclusive: 20.2 µM [inhibitor, single point]"}]}
{"smiles": "Cn1cnc2c(F)c(Nc3ccc(Br)cc3F)c(C(=O)NOCCO)cc21", "values": [{"measurement": "Potency", "setting": "[1]", "result": "inconclusive: 0.525 µM [inhibitor, full curve, poor fit]"}, {"measurement": "Potency", "setting": "[2]", "result": "inconclusive: 20.9 µM [inhibitor, partial curve, poor fit]"}, {"measurement": "Potency", "setting": "[3]", "result": "inactive"}]}
{"smiles": "COc1cc2nc(N3CCN(C(=O)C4COc5ccccc5O4)CC3)nc(N)c2cc1OC", "note": "(stereo not given)", "values": [{"measurement": "Potency", "setting": "[1]", "result": "inconclusive: 26.6 µM [inhibitor, single point]"}, {"measurement": "Potency", "setting": "[2]", "result": "inconclusive: 18.8 µM [inhibitor, single point]"}, {"measurement": "Potency", "setting": "[8]", "result": "active: 23 µM"}, {"measurement": "Potency", "setting": "[4]", "result": "active: 18 µM"}, {"measurement": "Potency", "setting": "[6]", "result": "inconclusive: 20.2 µM [inhibitor, single point]"}]}
{"smiles": "C=C1c2cccc(O)c2C(O)=C2C(=O)[C@@]3(O)C(O)=C(C(N)=O)C(=O)[C@@H](N(C)C)[C@@H]3[C@@H](O)[C@H]12", "values": [{"measurement": "Potency", "setting": "[1]", "result": "inconclusive: 11.8 µM [inhibitor, partial curve, poor fit]"}, {"measurement": "Potency", "setting": "[2]", "result": "inconclusive: 13.2 µM [inhibitor, partial curve]"}, {"measurement": "Potency", "setting": "[4]", "result": "inconclusive: 29 µM [inhibitor, single point]"}]}
{"smiles": "COC(=O)C1=C(C)NC(C)=C(C(=O)OC(C)C)C1c1cccc2nonc12", "note": "(stereo not given)", "values": [{"measurement": "Potency", "setting": "[1]", "result": "inconclusive: 21.1 µM [inhibitor, single point]"}, {"measurement": "Potency", "setting": "[2]", "result": "inconclusive: 33.5 µM [inhibitor, single point]"}, {"measurement": "Potency", "setting": "[9]", "result": "inactive"}]}
{"smiles": "C[C@@H](N)c1ccc(C(=O)Nc2ccnc3[nH]ccc23)cc1", "values": [{"measurement": "Potency", "setting": "[1]", "result": "active: 9.34 µM"}, {"measurement": "Potency", "setting": "[2]", "result": "active: 4.17 µM"}, {"measurement": "Potency", "setting": "[10]", "result": "inactive"}]}
{"smiles": "CC(C)c1noc(N2CCC(COc3ccc(-c4ccc(S(C)(=O)=O)cc4)nc3)CC2)n1", "values": [{"measurement": "Potency", "setting": "[1]", "result": "inconclusive: 5.15 µM [inhibitor, full curve]"}, {"measurement": "Potency", "setting": "[2]", "result": "inconclusive: 5.15 µM [inhibitor, full curve]"}, {"measurement": "Potency", "setting": "[10]", "result": "inactive"}]}
{"smiles": "C[C@H]1COc2c(N3CCN(C)CC3)c(F)cc3c(=O)c(C(=O)O)cn1c23", "values": [{"measurement": "Potency", "setting": "[1]", "result": "inconclusive: 33.2 µM [inhibitor, single point]"}, {"measurement": "Potency", "setting": "[4]", "result": "inconclusive: 22.7 µM [inhibitor, single point]"}]}
{"smiles": "CC(=O)N1CCN(c2ccc(OC[C@H]3CO[C@](Cn4ccnc4)(c4ccc(Cl)cc4Cl)O3)cc2)CC1", "values": [{"measurement": "Potency", "setting": "[1]", "result": "inconclusive: 8.33 µM [inhibitor, full curve, poor fit]"}, {"measurement": "Potency", "setting": "[9]", "result": "inactive"}, {"measurement": "activation", "setting": "[11]", "result": "inactive: 10.6%"}, {"measurement": "Potency", "setting": "[12]", "result": "active: 49.4 µM"}]}
{"smiles": "CCc1ccc(CCOc2ccc(CC3SC(=O)NC3=O)cc2)nc1", "note": "(stereo not given)", "values": [{"measurement": "Potency", "setting": "[2]", "result": "inactive"}]}
{"smiles": "COc1cc2nc(N(C)CCCNC(=O)C3CCCO3)nc(N)c2cc1OC", "note": "(stereo not given)", "values": [{"measurement": "Potency", "setting": "[1]", "result": "inactive"}, {"measurement": "Potency", "setting": "[4]", "result": "inconclusive: 32.1 µM [inhibitor, single point]"}, {"measurement": "Potency", "setting": "[6]", "result": "inconclusive: 32.1 µM [inhibitor, single point] and inconclusive: 35.5 µM [inhibitor, single point]"}]}
